From the supplement of paper PMC10126150
Values marked as one replicate rest on one cluster of the flow cell; about a third of the high ones do not repeat.
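Also: ATP exposure 15 min at 22 °C before imaging.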

What follows are sequences tested on ATP (assay: switch fluorescence ratio, 500 uM ATP over buffer (Cy3 cluster intensity, sum of 5 cycles each) (fold (ratio)); higher = stronger signal-on switching upon ATP binding; sequences stand for … in TCGTCGGCAGCGTCAGATGTGTATAAGAGACAGTTTTTTTTTTTTTTTTTTTTTTTTT…TC). Conditions: aptamer strand: ATP DNA aptamer (quencher-CACCTGGGGGAGTATTGCGGAGGAAGG + anchor), 100 nM annealed; ATP concentration: 500 uM; one replicate.
Outline: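 Imaging in selection buffer was followed by imaging after 15 min with 500 uM ATP at 22 °C, for Cy3-labelled switching-strand clusters annealed to 100 nM quencher-labelled ATP aptamer on a modified Illumina MiSeq flow-cell. Five of these buffer/ATP cycles ran, separated by NaOH stripping and re-annealing. The fluorescence ratio per cluster is summed target-cycle over summed buffer-cycle Cy3 intensity, averaged per switch-domain sequence; clusters outside 100-1000 RFU were removed.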
With TAAGTTGCTA the switch fluorescence ratio was 1.
Sequence TAAGTTTATA has a switch fluorescence ratio of 1.02.
With TAATAACCTA the switch fluorescence ratio was 1.04.
Sequence TAATACGATA has a switch fluorescence ratio of 1.17.
Sequence TAATAGCAC has a switch fluorescence ratio of 1.02.
TAATATGCGT was tested, and the switch fluorescence ratio was 0.996.
In the case of TAATCAATAG, the switch fluorescence ratio is reported as 1.06.
TAATCAGGTG gave a switch fluorescence ratio of 3.04.
Sequence TAATCCGGAA has a switch fluorescence ratio of 2.23.
In the case of TAATCGC, the switch fluorescence ratio is reported as 1.01.
Sequence TAATCTGGCC has a switch fluorescence ratio of 0.912.
TAATCTGTGG gave a switch fluorescence ratio of 0.999.
TAATGAAATG showed a switch fluorescence ratio of 0.981.
For TAATGATATG, the switch fluorescence ratio was 1.
For TAATGCTCAT, the switch fluorescence ratio was 0.984.
With TAATGCTCTC the switch fluorescence ratio was 1.02.
TAATGGCCTG gave a switch fluorescence ratio of 0.992.
TAATGGTGGT showed a switch fluorescence ratio of 1.05.
TAATGTCAC was tested, and the switch fluorescence ratio was 1.09.
TAATGTTAGC gave a switch fluorescence ratio of 0.913.
TAATTAAATC was tested, and the switch fluorescence ratio was 1.01.
Work on TAATTAATT yielded a switch fluorescence ratio of 1.02.
Sequence TAATTACGAC has a switch fluorescence ratio of 1.1.
TAATTATACT gave a switch fluorescence ratio of 1.11.
Work on TAATTATTGG yielded a switch fluorescence ratio of 0.958.
TAATTCAACT was tested, and the switch fluorescence ratio was 1.01.
Work on TAATTCCACA yielded a switch fluorescence ratio of 1.04.
For TAATTCGGCC, the switch fluorescence ratio was 0.977.
TAATTGTAGA was tested, and the switch fluorescence ratio was 0.976.
TAATTTCTA gave a switch fluorescence ratio of 1.03.
Sequence TAATTTGGAT has a switch fluorescence ratio of 1.
Work on TAATTTGGCC yielded a switch fluorescence ratio of 0.996.
Sequence TACAAAAGCG has a switch fluorescence ratio of 0.997.
TACAAGAGTT showed a switch fluorescence ratio of 1.05.
For TACAAGATGG, the switch fluorescence ratio was 0.958.
TACAAGGGGA was tested, and the switch fluorescence ratio was 1.07.
Sequence TACAAGTCTC has a switch fluorescence ratio of 1.03.
Work on TACAAGTTCG yielded a switch fluorescence ratio of 0.998.
TACAATGTC showed a switch fluorescence ratio of 1.09.
With TACACATCCG the switch fluorescence ratio was 1.08.
In the case of TACACATGCC, the switch fluorescence ratio is reported as 1.05.
Work on TACACCATAT yielded a switch fluorescence ratio of 1.12.
TACACCGAGG was tested, and the switch fluorescence ratio was 1.01.
Sequence TACACGTCGG has a switch fluorescence ratio of 1.03.
In the case of TACACTAGAT, the switch fluorescence ratio is reported as 0.999.
With TACACTTGTG the switch fluorescence ratio was 0.981.
With TACAGAGCAG the switch fluorescence ratio was 1.21.
TACAGAGTAA showed a switch fluorescence ratio of 1.01.
With TACAGATCGG the switch fluorescence ratio was 1.02.
In the case of TACAGCCTTG, the switch fluorescence ratio is reported as 0.986.
TACAGCGCGG gave a switch fluorescence ratio of 0.969.
In the case of TACAGCTCTT, the switch fluorescence ratio is reported as 0.938.
In the case of TACAGGCACC, the switch fluorescence ratio is reported as 1.18.
Sequence TACAGGTAGG has a switch fluorescence ratio of 1.03.
TACAGTATGG showed a switch fluorescence ratio of 1.07.
With TACAGTGCCA the switch fluorescence ratio was 1.02.
For TACAGTGCGG, the switch fluorescence ratio was 1.03.
Work on TACAGTGGTT yielded a switch fluorescence ratio of 1.03.
Work on TACATATTAT yielded a switch fluorescence ratio of 0.979.
TACATCAGAG gave a switch fluorescence ratio of 1.03.
Work on TACATGAAGT yielded a switch fluorescence ratio of 1.02.
With TACATGATAA the switch fluorescence ratio was 1.05.
TACATTTATG gave a switch fluorescence ratio of 1.04.
TACCAACTGG was tested, and the switch fluorescence ratio was 1.
For TACCAAGGCC, the switch fluorescence ratio was 1.
TACCACCTTT was tested, and the switch fluorescence ratio was 1.12.
TACCACGTAC gave a switch fluorescence ratio of 2.02.
For TACCAGTGTT, the switch fluorescence ratio was 1.03.
In the case of TACCAGTTGG, the switch fluorescence ratio is reported as 1.02.
With TACCCAGGGT the switch fluorescence ratio was 1.18.
With TACCCATCGG the switch fluorescence ratio was 1.
TACCCCGGGG gave a switch fluorescence ratio of 1.04.
In the case of TACCCTATTT, the switch fluorescence ratio is reported as 1.04.
Work on TACCGAAGAT yielded a switch fluorescence ratio of 1.99.
TACCGATACT showed a switch fluorescence ratio of 2.12.
TACCGATGTG showed a switch fluorescence ratio of 1.03.
With TACCGCTAAA the switch fluorescence ratio was 1.33.
Work on TACCGGCGAT yielded a switch fluorescence ratio of 1.02.
TACCGTGCGG showed a switch fluorescence ratio of 1.04.
TACCTAACGC was tested, and the switch fluorescence ratio was 1.36.
TACCTAGCA was tested, and the switch fluorescence ratio was 0.996.
TACCTTCCGC was tested, and the switch fluorescence ratio was 2.71.
TACCTTGCGG gave a switch fluorescence ratio of 1.04.
TACGAAGAG was tested, and the switch fluorescence ratio was 1.07.
TACGACTCTC gave a switch fluorescence ratio of 1.06.
For TACGACTGTT, the switch fluorescence ratio was 0.984.
TACGATAGCG showed a switch fluorescence ratio of 1.04.
TACGATCCTG was tested, and the switch fluorescence ratio was 1.01.
TACGATGGGT was tested, and the switch fluorescence ratio was 1.01.
TACGATGTC gave a switch fluorescence ratio of 1.03.
In the case of TACGATGTTT, the switch fluorescence ratio is reported as 1.1.
TACGATTC gave a switch fluorescence ratio of 0.956.
TACGATTCCG was tested, and the switch fluorescence ratio was 1.01.
TACGATTGAT gave a switch fluorescence ratio of 1.
TACGCAACAA was tested, and the switch fluorescence ratio was 2.18.
For TACGCAGGT, the switch fluorescence ratio was 1.01.
In the case of TACGCATCGC, the switch fluorescence ratio is reported as 2.03.
TACGCCATTC showed a switch fluorescence ratio of 1.79.
Sequence TACGCCCTTG has a switch fluorescence ratio of 1.06.
For TACGCGAAT, the switch fluorescence ratio was 1.05.
TACGGCGGAT was tested, and the switch fluorescence ratio was 0.986.
With TACGGGGAGC the switch fluorescence ratio was 0.979.
Sequence TACGGTGTA has a switch fluorescence ratio of 0.99.
With TACGTATCGG the switch fluorescence ratio was 0.989.
TACGTATGGA showed a switch fluorescence ratio of 1.08.
TACGTTACG was tested, and the switch fluorescence ratio was 1.21.
In the case of TACGTTACGT, the switch fluorescence ratio is reported as 1.35.
Sequence TACGTTTCGT has a switch fluorescence ratio of 0.992.
TACTAACAC was tested, and the switch fluorescence ratio was 1.26.
TACTAATATC was tested, and the switch fluorescence ratio was 1.06.
In the case of TACTAATTTT, the switch fluorescence ratio is reported as 1.04.
TACTACATTA gave a switch fluorescence ratio of 1.05.
Work on TACTACTAAT yielded a switch fluorescence ratio of 1.05.
TACTACTGAT was tested, and the switch fluorescence ratio was 1.06.
With TACTACTGCA the switch fluorescence ratio was 1.19.
TACTAGAGTC was tested, and the switch fluorescence ratio was 1.07.
Work on TACTAGGCT yielded a switch fluorescence ratio of 1.02.
In the case of TACTATCGTC, the switch fluorescence ratio is reported as 0.985.
Work on TACTCAAGTA yielded a switch fluorescence ratio of 1.
TACTCACATA was tested, and the switch fluorescence ratio was 1.36.
Sequence TACTCCGCCA has a switch fluorescence ratio of 2.91.
Sequence TACTCGTATA has a switch fluorescence ratio of 1.08.
TACTCGTTCA was tested, and the switch fluorescence ratio was 1.03.
TACTGAGGTC showed a switch fluorescence ratio of 1.02.
In the case of TACTGGAACT, the switch fluorescence ratio is reported as 1.
TACTGGGTA showed a switch fluorescence ratio of 1.
TACTGGTTAA was tested, and the switch fluorescence ratio was 1.2.
In the case of TACTGTGATG, the switch fluorescence ratio is reported as 1.
With TACTGTGTGA the switch fluorescence ratio was 1.01.
TACTGTTGTT showed a switch fluorescence ratio of 0.976.
TACTTAACAG showed a switch fluorescence ratio of 1.13.
TACTTATG was tested, and the switch fluorescence ratio was 1.01.
TACTTCCATT showed a switch fluorescence ratio of 1.02.
With TACTTCGGTG the switch fluorescence ratio was 1.02.
For TACTTGGCTG, the switch fluorescence ratio was 1.12.
With TACTTGGGTT the switch fluorescence ratio was 1.03.
Sequence TACTTTCCAA has a switch fluorescence ratio of 0.984.
TACTTTGTTT showed a switch fluorescence ratio of 0.966.
With TACTTTTCCC the switch fluorescence ratio was 0.999.
For TACTTTTCT, the switch fluorescence ratio was 1.
TACTTTTTGT was tested, and the switch fluorescence ratio was 0.998.
TAGAAACTAT was tested, and the switch fluorescence ratio was 1.03.
TAGAAAG was tested, and the switch fluorescence ratio was 1.01.
In the case of TAGAACTGTT, the switch fluorescence ratio is reported as 1.09.
With TAGAAGATAA the switch fluorescence ratio was 0.96.
TAGAAGGAGC was tested, and the switch fluorescence ratio was 1.
Work on TAGAATTCAT yielded a switch fluorescence ratio of 1.01.
Sequence TAGACAAAC has a switch fluorescence ratio of 1.12.
TAGAGAACCG was tested, and the switch fluorescence ratio was 1.04.
TAGAGAAGGC was tested, and the switch fluorescence ratio was 0.987.
In the case of TAGAGACTTT, the switch fluorescence ratio is reported as 1.05.
In the case of TAGAGCCGTT, the switch fluorescence ratio is reported as 0.958.
Work on TAGAGCTCTC yielded a switch fluorescence ratio of 0.973.
Work on TAGAGGAGGG yielded a switch fluorescence ratio of 0.997.
Work on TAGAGGAGGT yielded a switch fluorescence ratio of 0.994.
Sequence TAGAGGTTTT has a switch fluorescence ratio of 0.987.
TAGAGTAATT showed a switch fluorescence ratio of 1.01.
TAGAGTCCGG showed a switch fluorescence ratio of 1.01.
TAGAGTGAGC was tested, and the switch fluorescence ratio was 0.936.
In the case of TAGATAAAGG, the switch fluorescence ratio is reported as 1.03.
Work on TAGATACGTT yielded a switch fluorescence ratio of 1.02.
Work on TAGATATTGC yielded a switch fluorescence ratio of 1.04.
Work on TAGATCATCT yielded a switch fluorescence ratio of 0.984.
With TAGATCGCGA the switch fluorescence ratio was 1.01.
Sequence TAGATGCTTA has a switch fluorescence ratio of 0.983.
TAGATGTT showed a switch fluorescence ratio of 0.97.
With TAGATTGCTG the switch fluorescence ratio was 1.01.
TAGCAAAATC gave a switch fluorescence ratio of 1.36.
In the case of TAGCAATCTG, the switch fluorescence ratio is reported as 1.6.
TAGCAATCTT showed a switch fluorescence ratio of 1.89.
With TAGCACGATA the switch fluorescence ratio was 1.13.
Work on TAGCACGATC yielded a switch fluorescence ratio of 1.06.
Work on TAGCACTCCG yielded a switch fluorescence ratio of 1.2.
TAGCAGCGCC gave a switch fluorescence ratio of 0.994.
In the case of TAGCAGGATT, the switch fluorescence ratio is reported as 1.04.
For TAGCATACGG, the switch fluorescence ratio was 1.3.
With TAGCATGTAT the switch fluorescence ratio was 1.02.
For TAGCCCGCGG, the switch fluorescence ratio was 0.984.
Sequence TAGCCGATCT has a switch fluorescence ratio of 1.02.
Work on TAGCCGCCGA yielded a switch fluorescence ratio of 1.44.
TAGCCTACGA gave a switch fluorescence ratio of 1.1.
TAGCCTCTGG gave a switch fluorescence ratio of 0.996.
With TAGCGAGATG the switch fluorescence ratio was 0.949.
In the case of TAGCGCAGG, the switch fluorescence ratio is reported as 1.03.
Sequence TAGCGCGGA has a switch fluorescence ratio of 1.13.
In the case of TAGCGGATTC, the switch fluorescence ratio is reported as 1.06.
TAGCGGGTGA gave a switch fluorescence ratio of 1.06.
TAGCGTATCT showed a switch fluorescence ratio of 0.976.
TAGCGTCGGC gave a switch fluorescence ratio of 1.01.
Sequence TAGCTGACAT has a switch fluorescence ratio of 1.02.
For TAGCTTGCCA, the switch fluorescence ratio was 1.04.
With TAGCTTTCGG the switch fluorescence ratio was 0.991.
TAGCTTTCTA gave a switch fluorescence ratio of 1.
TAGGAACCCT was tested, and the switch fluorescence ratio was 1.07.
TAGGAAGGT was tested, and the switch fluorescence ratio was 1.08.
TAGGAAGTGT was tested, and the switch fluorescence ratio was 1.08.
In the case of TAGGAGAAGC, the switch fluorescence ratio is reported as 1.01.
Sequence TAGGAGCAT has a switch fluorescence ratio of 1.24.
TAGGAGTCCG gave a switch fluorescence ratio of 1.01.
Sequence TAGGAGTGGT has a switch fluorescence ratio of 1.06.
Work on TAGGATATCG yielded a switch fluorescence ratio of 0.998.
